# About 60 (0.1%) of roughly 46,000 compounds were called active. Another 3% or so got no clear call; they are omitted. Calls follow the shape of the dose curve; as a rule, active = well fitted inhibition curve with a large enough effect; inconclusive = small, poorly fitted or top-dose-only effect; inactive = no such curve, though single readings can be large or run the other way. The list shows a part of the results.
# Experiment: Primary qHTS assay for Inhibitors of ovarian cancer metastasis using an organotypic tumor microenvironment (TME) model. Also: nearly all actives have a fitted effect of over 65% in size.
# Conditions: SKOV3ip1-GFP adhesion/invasion on 3D omental model, fluorescence; series mostly up to 45.8 µM; activity change, negative = inhibition: at the top concentration
# Text: PI: Ernst Lengyel MD., Ph.D. Department of Obstetrics and Gynecology, Section of Gynecologic Oncology University of Chicago Medicine, Chicago, Illinois. The tumor microenvironment (TME) is a key determinant of metastatic efficiency. We performed a quantitative high-throughput screen (qHTS) of diverse medicinal chemistry tractable scaffolds (44,420 compounds) and pharmacologically active small molecules (386 compounds) using a layered organotypic, robust assay representing the ovarian cancer metastatic TME. This 3D model contains primary human mesothelial cells, fibroblasts, and extracellular matrix, to which fluorescently labeled ovarian cancer cells are added. Initially, 100 compounds inhibiting ovarian cancer adhesion/invasion to the 3D model in a dose-dependent manner were identified. Of those, eight compounds were confirmed active in five high-grade serous ovarian cancer cell lines and were further validated in secondary in vitro and in vivo biological assays. […] Specifically, NCGC00117362 and PP-121 inhibited ovarian cancer adhesion, invasion, and proliferation, whereas milciclib inhibited ovarian cancer invasion and proliferation. […] To evaluate the clinical potential of NCGC00117362, structure - activity relationship studies were performed. […] The three compounds identified have promise as therapeutics for prevention and treatment of ovarian cancer metastasis.
# PROTOCOL TABLE (as described by Inglese J, Shamu CE and Guy RK. 2007) SEQUENCE No. (e.g., 1, 2, 3, etc.); […] (e.g., Cells, Incubation, Reagent, etc.); VALUE; DESCRIPTION. 1; Cells; 4 uL; primary human omental fibroblast, black, clear bottom, low base, 1536-well Aurora assay plate. 2; Incubation; 48 hr; 37C. 3; Cells; 3 uL; 1,200 SKOV3ip1-GFP cells. 4; Compounds; 23nL; acoustic dispenser. 5; Incubation; 2 hr; room temperature. 6; Incubation; 16 hr; 37C. 7; Wash; 5 uL; 1x PBS. 8; Fixing; 5 uL; 4% paraformaldehyde (PFA). 9; Incubation; 15 min; room temperature 10; Wash, 5 uL; 1x PBS. 11; Detection; Fluorescence, excitation filter 488 nm, emission filter 509 nm. NOTES (numbers refer to Sequence numbers above) 1. For the 1,536-well format, 40 primary human omental fibroblasts and 400 mesothelial cells were seeded with 0.02 µg fibronectin and 0.02 µg collagen type I in 4 µL of growth media (2.3 mm2; Supplementary Fig. S1A). 2. Assay plates were incubated for 48 hours at 37 C. 3. After incubation, 1,200 SKOV3ip1-GFP were seeded in 3 µL of serum-free media (growth media minus FBS) on top of primary human omental cells. 4. Compounds or controls were added to each well immediately after the addition of the cancer cells. Compounds were screened in four doses (0.36-46 µmol/L), and the plates contained the positive control (Tomatine) in eight doses (0.035-75 µmol/L) and DMSO (equal volume controls) 5 - 6. The plates were incubated at room temperature for 2 hours and then at 37 degrees C for 16 hours. 7 - 10. Following incubation, the media were aspirated and each well washed with PBS (5 µL) and then fixed with 4% paraformaldehyde (PFA; 5 µL). After 15 minutes, the PFA solution was aspirated, PBS (5 µL) was added. 11. The number of GFP-labeled cells analyzed using a fluorescent cytometer TTP LabTech Acumen eX3 using 488 nm excitation filter and 509 nm emission filter. Data was normalized to the DMSO treated for negative and Tomatine treated wells for positive control. REFERENCES: Inglese J, Shamu CE and Guy RK, Reporting data from high throughput screening of small molecule libraries, Nature Chemical Biology, 2007, 3(8): 438-441. doi.org/10.1038/nchembio0807-438. Yasgar A, Shinn P, Jadhav A, Auld DS, Michael S, Zheng W, Austin CP, Inglese J and Simeonov A, Compound Management for Quantitative High-Throughput Screening. J. Assoc. Lab. Auto., 2008, 13: 79-89. doi: 10.1016/j.jala.2007.12.004.
SMILES,"activity change, negative = inhibition",outcome
O=C(Nc1ccc2oc(-c3cc(Br)ccc3Cl)nc2c1)c1ccc2ccccc2c1,inactive: -26.2%,–
CCOCCc1nn2c(=O)cc(COC(=O)c3ccco3)nc2s1,inactive: -8.61%,–
COc1cc(-c2noc(-c3ccc(N4CCCCC4)c([N+](=O)[O-])c3)n2)cc(OC)c1OC,–,inactive
O=C(NCc1ccc(Cl)cc1)C1CCN(S(=O)(=O)c2ccc3c(c2)CCCN3C(=O)C2CCC2)CC1,inactive: -2.16%,–
CCOc1ccc(NC(=O)c2noc3c2CSc2ccccc2-3)cc1,inactive: 6.23%,–
O=C(CSc1nc(O)c(C/C=C/c2ccccc2)c(=O)[nH]1)Nc1cccc(F)c1,inactive: -13.1%,–
CC(C)(C)c1ccc(S(=O)(=O)N2CCN(C(=O)c3cc(-c4ccc(Br)cc4)n[nH]3)CC2)cc1,inactive: -7.77%,–
O=C1CC(c2cccc(F)c2)c2c(n3ncnc3[nH]c2=O)N1 (stereo not drawn),–,inactive
COc1cccc(N2CCN(C(=O)Cn3ncc4c(=O)oc5ccccc5c43)CC2)c1,–,inactive
CCOC(=O)Cn1c(=O)n(C2CCCCC2)c2nc(-c3cccc(C)c3)nc(C(N)=O)c21,inactive: -7.36%,–
COc1ccc(-n2c(SCC(=O)NCc3ccccc3)nc3n[nH]c(C)c3c2=N)cc1,inactive: -17%,–
CN(C(=O)c1oc(=O)c2ccccc2c1-c1ccccc1)c1cccc(Cl)c1,inactive: 9.03%,–
CCCn1c(=O)c2sccc2n2c(CCCC(=O)Nc3ccccc3F)nnc12,inactive: 9.44%,–
COc1ccccc1N1CCN(c2ncnc3onc(C)c23)CC1,inactive: 0.736%,–
COc1ccc(-c2cc(C)no2)cc1S(=O)(=O)N1CC(C)Oc2ccccc21 (stereo not drawn),inactive: -1.73%,–
CCN1CCN(CCCNC(=O)c2ccc3c(c2)sc2nc(-c4ccc(C)cc4)cn23)CC1,–,inactive
O=C(CSc1ccc(-c2cccs2)nn1)Nc1cccc(F)c1,–,inactive
CCOc1ccc(CCNC(=O)Cc2ccc(NC(=O)N3CCSc4ncccc43)cc2)cc1,inactive: -6.13%,–
COc1ccc(-n2nc(C(=O)N3CCN(c4cccc(C(F)(F)F)c4)CC3)c3c4ccccc4n(C)c3c2=O)cc1Cl,inactive: -2.94%,–
COc1cccc(CN2CCc3nc(N4CCN(C)CC4)ncc3C2)c1,inactive: -9.43%,–
COc1cc(OC)cc(C(=O)Nc2nc(-c3nnn(-c4ccc(F)c(Cl)c4)c3C)ns2)c1,inactive: -2.13%,–
Cc1oc2ncn(C)c(=O)c2c1C(=O)NCc1ccccc1,inactive: 0.816%,–
CNCc1ccc(-c2[nH]c3cc(F)cc4c3c2CCNC4=O)cc1,inactive: -5.69%,–
COc1cccc(N2CCN(C(=O)Cn3ncc4c5ccccc5n(C)c4c3=O)CC2)c1,inactive: 1.34%,–

SMILES,"activity change, negative = inhibition",outcome
Cc1cccc(-c2noc(-c3cc(-c4ccc(F)cc4)n[nH]3)n2)c1,–,inactive
COc1cccc(C(=O)Nc2ccccc2-c2nnc(-c3ccc(C(C)(C)C)cc3)o2)c1,inactive: -0.358%,–
COc1ccc(NC(=O)CSc2nc(C)cc(C)c2C(=O)Nc2cccc(C)c2)cc1,inactive: 0.844%,–
COc1ccc2cc3cc(C(=O)Nc4ccccc4C)oc3nc2c1,inactive: 12.8%,–
O=C(CSc1nc(-c2ccco2)nc2cc(=O)[nH]n12)Nc1ccccc1F,inactive: -5.59%,–
O=C(c1ccccc1Cl)N1CCN(CCc2ccccn2)CC1,inactive: -2.77%,–
Cc1ccc(-c2ncn(-c3ccc(Nc4nccc(-c5cccc(N6CCOCC6)c5)n4)cc3)n2)cn1,inactive: -15.7%,–
Cc1ccccc1NC(=O)c1ccc(F)c(S(=O)(=O)NC2CCCC2)c1,inactive: 13.4%,–
CCN1CCN(C(=O)c2ccc3c(c2)N(Cc2ccccc2F)C(=O)c2ccccc2S3(=O)=O)CC1,inactive: -12.4%,–
CCNC(=O)c1noc(-c2cc(C(C)C)c(O)cc2O)c1-c1ccc(CN2CCOCC2)cc1,inactive: 34.6%,–
CCOc1ccc(-c2cc(CCCC(=O)NCCc3ccc(OCC)c(OCC)c3)no2)cc1,inactive: -9.54%,–
CCCOC(=O)c1ccc(Nc2nc3ccccc3nc2-n2nc(C)cc2C)cc1,inactive: -8.01%,–
C[C@@H](NC(=O)CN(c1ccccc1)S(=O)(=O)N(C)C)c1ccccc1,–,inactive
CCOC(=O)c1cccc(NC(=O)N2CC(CC)Oc3ccccc32)c1 (stereo not drawn),inactive: -3.09%,–
COc1ccc(NC(=O)c2sc3nc4c(cc3c2N)CCCCCC4)cc1Cl,inactive: -21.8%,–
COc1cc(NS(=O)(=O)c2ccc(NC(=O)c3ccc(C(C)=O)cc3)cc2)nc(OC)n1,inactive: -9.74%,–
Cc1ccc(N2CCN(C(=O)c3c(C)oc4nc(C)nc(N5CCCC5)c34)CC2)c(C)c1,–,inactive
COc1cccc(N(C)C(=S)Oc2ccc3c(c2)CCCC3)n1,inactive: -6.31%,–
CCn1c(=O)c2cc(C(=O)N(C)c3cc(Cl)c(OC)cc3OC)sc2c2ccccc21,inactive: 6.98%,–
Cc1cccc(CNC(=O)CCCN2C(=O)COc3ccc(C)cc32)c1,–,inactive
O=C(CSc1ncc2c(n1)-c1ccccc1N(Cc1ccc(F)cc1)S2(=O)=O)NCc1ccccc1,–,inactive
CCc1nn(CC(=O)NCCN(CC)CC)c(=O)c2cc3occc3n12,inactive: -4.92%,–
Cc1nc2cccnc2n1C1CCN(S(=O)(=O)c2ccc(C(C)C)cc2)CC1,inactive: -1.97%,–
Cc1cccc(-n2ncc(C(=O)NCc3ccco3)c2C2CCN(C(=O)OC(C)(C)C)CC2)c1,inactive: -9.75%,–
